Results reported in PMC12820563, “FoxP3 forms a head-to-head dimer in vivo and stabilizes its multimerization on adjacent microsatellites”.
The list shows a part of the results.

What follows are sequences tested against T1, MBP-FoxP1dN (Mus musculus, UniProt P58462 326-579) (assay: PD-seq (MBP pull-down with sequencing); 20 mM Tris-HCl pH 7.5, 100 mM NaCl, 1.5 mM MgCl2, 0.4 uM protein, 0.1 uM dsDNA library, 30 min, room temperature, amylose pull-down; high values mean tight binding). Details: protein: recombinant; tags: His6-MBP; chain copies: 2; dsDNA, one strand shown.
T1 sequence: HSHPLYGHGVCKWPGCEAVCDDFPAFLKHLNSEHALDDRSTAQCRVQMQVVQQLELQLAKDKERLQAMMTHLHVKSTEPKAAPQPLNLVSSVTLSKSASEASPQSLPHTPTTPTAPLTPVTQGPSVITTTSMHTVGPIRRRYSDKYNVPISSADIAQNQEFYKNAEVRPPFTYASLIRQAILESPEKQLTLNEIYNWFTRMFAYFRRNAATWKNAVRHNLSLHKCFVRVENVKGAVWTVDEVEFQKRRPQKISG
Procedure, shortened: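 In Tris pH 7.5 buffer with NaCl and MgCl2, 0.4 µM His6-MBP-tagged mouse FoxP3 or FoxP1 fragment lacking the N-terminus, from E. coli, met 0.1 µM Klenow-filled double-stranded degenerate DNA library for 30 min at room temperature. Three washes on amylose resin followed capture of the complexes, then proteinase K release of DNA, PCR barcoding and Illumina sequencing. Binding is taken as pooled-replicate reads-per-million enrichment of pull-down relative to input.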

Sequence | binding signal
GATGATTGTTCTCCCAGCTGATGAATTCACTTCTTCGAGTAAACAAATTTTCCTAATCTTTCTGTTCAAGCGCCATCTAC | 0.894 RPM ratio (pull-down/input)
GATGATTGTTCTCCCAGCTGATGAATTTCACTCATCGAGTAAACAAATTTTCCTAATCTTTCTGTTCAAGCGCCATCTAC | 0.918 RPM ratio (pull-down/input)
GATGATTGTTCTCCCAGCTGATGAATTAGTGATGTCGAGTAAACAAATTTTCCTAATCTTTCTGTTCAAGCGCCATCTAC | 1.25 RPM ratio (pull-down/input)
GATGATTGTTCTCCCAGCTGATGAATTTTCCCATTCGAGTAAACAAATTTTCCTAATCTTTCTGTTCAAGCGCCATCTAC | 0.937 RPM ratio (pull-down/input)
GATGATTGTTCTCCCAGCTGATGAATTACACTGATCGAGTAAACAAATTTTCCTAATCTTTCTGTTCAAGCGCCATCTAC | 1.12 RPM ratio (pull-down/input)
GATGATTGTTCTCCCAGCTGATGAATTATGCAGTTCGAGTAAACAAATTTTCCTAATCTTTCTGTTCAAGCGCCATCTAC | 1.01 RPM ratio (pull-down/input)
GATGATTGTTCTCCCAGCTGATGAATTGAGAGCCTCGAGTAAACAAATTTTCCTAATCTTTCTGTTCAAGCGCCATCTAC | 0.811 RPM ratio (pull-down/input)
GATGATTGTTCTCCCAGCTGATGAATTAGCTTTATCGAGTAAACAAATTTTCCTAATCTTTCTGTTCAAGCGCCATCTAC | 0.973 RPM ratio (pull-down/input)
GATGATTGTTCTCCCAGCTGATGAATTAAGTGCTTCGAGTAAACAAATTTTCCTAATCTTTCTGTTCAAGCGCCATCTAC | 0.861 RPM ratio (pull-down/input)
GATGATTGTTCTCCCAGCTGATGAATTTATCGGATCGAGTAAACAAATTTTCCTAATCTTTCTGTTCAAGCGCCATCTAC | 1.02 RPM ratio (pull-down/input)
GATGATTGTTCTCCCAGCTGATGAATTGCGCAGATCGAGTAAACAAATTTTCCTAATCTTTCTGTTCAAGCGCCATCTAC | 1.06 RPM ratio (pull-down/input)
GATGATTGTTCTCCCAGCTGATGAATTAACTGTATCGAGTAAACAAATTTTCCTAATCTTTCTGTTCAAGCGCCATCTAC | 1.14 RPM ratio (pull-down/input)
GATGATTGTTCTCCCAGCTGATGAATTACCAACCTCGAGTAAACAAATTTTCCTAATCTTTCTGTTCAAGCGCCATCTAC | 1.04 RPM ratio (pull-down/input)
GATGATTGTTCTCCCAGCTGATGAATTAAGAGTTTCGAGTAAACAAATTTTCCTAATCTTTCTGTTCAAGCGCCATCTAC | 0.931 RPM ratio (pull-down/input)
GATGATTGTTCTCCCAGCTGATGAATTGCCGTACTCGAGTAAACAAATTTTCCTAATCTTTCTGTTCAAGCGCCATCTAC | 0.923 RPM ratio (pull-down/input)
GATGATTGTTCTCCCAGCTGATGAATTCGTGCTTTCGAGTAAACAAATTTTCCTAATCTTTCTGTTCAAGCGCCATCTAC | 1.19 RPM ratio (pull-down/input)

Sequence | binding signal
GATGATTGTTCTCCCAGCTGATGAATTTATGAGCTCGAGTAAACAAATTTTCCTAATCTTTCTGTTCAAGCGCCATCTAC | 0.98 RPM ratio (pull-down/input)
GATGATTGTTCTCCCAGCTGATGAATTCGTGCGATCGAGTAAACAAATTTTCCTAATCTTTCTGTTCAAGCGCCATCTAC | 0.908 RPM ratio (pull-down/input)
GATGATTGTTCTCCCAGCTGATGAATTCGGAGGTTCGAGTAAACAAATTTTCCTAATCTTTCTGTTCAAGCGCCATCTAC | 0.763 RPM ratio (pull-down/input)
GATGATTGTTCTCCCAGCTGATGAATTGCGTCGCTCGAGTAAACAAATTTTCCTAATCTTTCTGTTCAAGCGCCATCTAC | 1.01 RPM ratio (pull-down/input)
GATGATTGTTCTCCCAGCTGATGAATTGCCTCTGTCGAGTAAACAAATTTTCCTAATCTTTCTGTTCAAGCGCCATCTAC | 0.913 RPM ratio (pull-down/input)
GATGATTGTTCTCCCAGCTGATGAATTCTCGCCTTCGAGTAAACAAATTTTCCTAATCTTTCTGTTCAAGCGCCATCTAC | 0.855 RPM ratio (pull-down/input)
GATGATTGTTCTCCCAGCTGATGAATTATCCGTGTCGAGTAAACAAATTTTCCTAATCTTTCTGTTCAAGCGCCATCTAC | 0.975 RPM ratio (pull-down/input)
GATGATTGTTCTCCCAGCTGATGAATTTCGGATATCGAGTAAACAAATTTTCCTAATCTTTCTGTTCAAGCGCCATCTAC | 0.957 RPM ratio (pull-down/input)
GATGATTGTTCTCCCAGCTGATGAATTTCAGGAATCGAGTAAACAAATTTTCCTAATCTTTCTGTTCAAGCGCCATCTAC | 0.937 RPM ratio (pull-down/input)
GATGATTGTTCTCCCAGCTGATGAATTGGTCTCGTCGAGTAAACAAATTTTCCTAATCTTTCTGTTCAAGCGCCATCTAC | 0.87 RPM ratio (pull-down/input)
GATGATTGTTCTCCCAGCTGATGAATTAAGAAACTCGAGTAAACAAATTTTCCTAATCTTTCTGTTCAAGCGCCATCTAC | 0.824 RPM ratio (pull-down/input)
GATGATTGTTCTCCCAGCTGATGAATTCACAAAATCGAGTAAACAAATTTTCCTAATCTTTCTGTTCAAGCGCCATCTAC | 1.19 RPM ratio (pull-down/input)
GATGATTGTTCTCCCAGCTGATGAATTGAAGGCGTCGAGTAAACAAATTTTCCTAATCTTTCTGTTCAAGCGCCATCTAC | 0.896 RPM ratio (pull-down/input)
GATGATTGTTCTCCCAGCTGATGAATTCCTCATGTCGAGTAAACAAATTTTCCTAATCTTTCTGTTCAAGCGCCATCTAC | 0.883 RPM ratio (pull-down/input)
GATGATTGTTCTCCCAGCTGATGAATTTACGTTTTCGAGTAAACAAATTTTCCTAATCTTTCTGTTCAAGCGCCATCTAC | 1.56 RPM ratio (pull-down/input)
